Measured values: paper PMC4336329 (PLoS ONE, 2015)
In all, about 310,000 compounds went through this assay and about 2,200 (0.71%) showed an effect of 50% or more. The effect is printed as a negative number. This is one part of the list.

These compounds were tested against human ether-à-go-go-related gene (hERG) potassium channel (human, UniProt Q12809) (assay: primary screen, population patch clamp on CHO cells stably expressing hERG).
Sequence of human ether-à-go-go-related gene (hERG) potassium channel (Q12809 whole entry, looked up): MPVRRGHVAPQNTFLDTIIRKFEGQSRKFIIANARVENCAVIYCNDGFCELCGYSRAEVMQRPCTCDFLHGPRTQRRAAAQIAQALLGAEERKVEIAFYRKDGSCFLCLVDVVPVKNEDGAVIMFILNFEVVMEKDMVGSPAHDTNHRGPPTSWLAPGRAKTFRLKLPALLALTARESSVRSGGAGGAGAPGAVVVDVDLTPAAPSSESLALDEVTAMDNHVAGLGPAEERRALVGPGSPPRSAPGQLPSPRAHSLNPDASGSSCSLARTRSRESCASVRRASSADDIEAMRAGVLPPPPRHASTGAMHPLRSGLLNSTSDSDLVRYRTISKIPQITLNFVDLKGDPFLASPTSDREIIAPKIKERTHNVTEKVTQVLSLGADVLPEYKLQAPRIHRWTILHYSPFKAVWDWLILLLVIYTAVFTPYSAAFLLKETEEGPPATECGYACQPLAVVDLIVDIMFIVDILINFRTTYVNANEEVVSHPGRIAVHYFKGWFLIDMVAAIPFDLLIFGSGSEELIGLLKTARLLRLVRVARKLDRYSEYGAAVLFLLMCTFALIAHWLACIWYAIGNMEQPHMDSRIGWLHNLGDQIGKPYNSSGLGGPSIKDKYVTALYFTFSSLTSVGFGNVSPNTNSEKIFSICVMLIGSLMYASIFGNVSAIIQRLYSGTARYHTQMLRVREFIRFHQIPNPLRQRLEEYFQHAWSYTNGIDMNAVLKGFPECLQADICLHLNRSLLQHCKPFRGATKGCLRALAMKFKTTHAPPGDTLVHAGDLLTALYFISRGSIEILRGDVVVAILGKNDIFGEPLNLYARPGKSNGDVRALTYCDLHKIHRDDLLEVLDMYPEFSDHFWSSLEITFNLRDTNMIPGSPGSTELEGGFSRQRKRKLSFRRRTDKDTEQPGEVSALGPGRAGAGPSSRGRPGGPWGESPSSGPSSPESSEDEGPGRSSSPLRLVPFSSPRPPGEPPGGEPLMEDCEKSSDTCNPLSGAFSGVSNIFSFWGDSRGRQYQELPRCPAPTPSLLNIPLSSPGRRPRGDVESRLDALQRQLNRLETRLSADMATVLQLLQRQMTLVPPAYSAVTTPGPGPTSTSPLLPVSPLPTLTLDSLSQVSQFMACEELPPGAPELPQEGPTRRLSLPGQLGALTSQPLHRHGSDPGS

First: Fc1ccc(NC(=S)NN2CCOCC2)cc1Cl
Second: O=C(CCNC(=O)c1ccccc1Cl)Nc1cc(S(=O)(=O)N2CCOCC2)ccc1N1CCCC1
The “hERG current change (%, negative = inhibition) at 1uM” value of the first is higher: 16.7% for the first, 9.62% for the second.

Compared with COc1cc(/C=C2/C(=N)N3N=C(CC(=O)N4CCOCC4)SC3=NC2=O)ccc1OCc1ccccc1F, COc1ccc(S(=O)(=O)N2CCC(C(=O)N3CCOCC3)CC2)cc1OC is lower in “hERG current change (%, negative = inhibition) at 1uM” value: 13.2% for the first, 12.9% for the second.

Compared with Cc1ccc(S(=O)(=O)N2CCN(C(=O)CN3C(=O)c4ccc([N+](=O)[O-])cc4C3=O)CC2)c(C)c1, Cc1ccc(NC(=O)C2CCN(S(=O)(=O)c3cccnc3)CC2)cc1C is higher in “hERG current change (%, negative = inhibition) at 1uM” value: 8.65% for the first, 14.2% for the second.

First: CC(NC(=O)c1cccc2ccccc12)c1ccc2c(c1)CCCC2 (stereo not shown)
Second: Cc1cccc(NC(=O)CSc2cccc3cccnc23)c1
The “hERG current change (%, negative = inhibition) at 1uM” value of the first is higher: 13.1% for the first, 6.24% for the second.

Compared with O=C(NCCCO)NC(=S)c1cccc2ccccc12, CCOC(=O)c1c(-c2ccccc2)csc1NC(=S)NC is lower in “hERG current change (%, negative = inhibition) at 1uM” value: 13.2% for the first, -2.22% for the second.

Compared with CCc1nnc(NS(=O)(=O)c2ccc(N=Cc3c(C)[nH]n(-c4ccc(Cl)cc4)c3=O)cc2)s1, Cc1ccc(S(=O)(=O)Cc2ccc(C(=O)NCCc3ccccc3)o2)cc1 is lower in “hERG current change (%, negative = inhibition) at 1uM” value: 9.5% for the first, 3.8% for the second.

Going from COc1cc(CN(C)c2ncnc3sccc23)ccc1OC(F)F to COc1ccc2oc(=O)c(C(=O)NCCc3ccc(OC)c(OC)c3)cc2c1, the “hERG current change (%, negative = inhibition) at 1uM” value rises from -0.356% to 0.0709%.

Going from Cc1nn(-c2ccccc2)c2c1C(c1ccc([N+](=O)[O-])cc1)C(C#N)=C(N)O2 (stereo not shown) to Cc1ccc(C2C3=C(NCCN=C3c3ccccc3)C(=O)N2c2ccccc2)cc1 (stereo not shown), the “hERG current change (%, negative = inhibition) at 1uM” value falls from 15.7% to 2.7%.

Going from CCOC(=O)c1cc(C#N)c(SCC(=O)OC)[nH]c1=O to CCCCn1c(N)c(N(CCOC)C(=O)c2cc(CC)c(C)s2)c(=O)[nH]c1=O, the “hERG current change (%, negative = inhibition) at 1uM” value rises from 3.41% to 17.7%.

Compared with O=C(O)CCn1c(C2CCCCC2)nc2ccccc21, NC(=O)c1nc(C(=O)N2CCCCC2)c2ccccc2n1 is higher in “hERG current change (%, negative = inhibition) at 1uM” value: -10.6% for the first, 13% for the second.

Compared with CC(=O)c1cccc(NC(=S)NC(=O)CC(C)(C)C)c1, CCCCC(=O)Nc1ccc(C(=O)NNC(=S)NC(=O)c2cccs2)cc1 is higher in “hERG current change (%, negative = inhibition) at 1uM” value: 1.95% for the first, 2.39% for the second.

First: O=C(NCCC(=O)N1CCN(c2ccccc2O)CC1)c1ccc(Cl)cc1
Second: CN1CCN(C(=S)NC(=O)c2ccc(Br)cc2)CC1
The “hERG current change (%, negative = inhibition) at 1uM” value of the first is higher: 10.7% for the first, 9.77% for the second.

Compared with O=C(c1ccc([N+](=O)[O-])o1)N1CCN(c2nc3c(Cl)cccc3s2)CC1, O=C(Cc1ccc([N+](=O)[O-])cc1)N1CCCCCC1 is lower in “hERG current change (%, negative = inhibition) at 1uM” value: 1.85% for the first, 0.724% for the second.

First: COc1ccc(C(=O)Nc2cc(OC)cc(OC)c2)cc1
Second: COc1ccc(CCC(C)Nc2ccc(F)c(F)c2)cc1 (stereo not shown)
The “hERG current change (%, negative = inhibition) at 1uM” value of the first is higher: 5.63% for the first, -26.7% for the second.

Compared with Cn1c(N)c(C(=O)COc2ccc(C#N)cc2)c(=O)n(C)c1=O, CC(NS(=O)(=O)c1ccc(OCC(=O)NCc2ccccn2)cc1)c1ccccc1 (stereo not shown) is higher in “hERG current change (%, negative = inhibition) at 1uM” value: -0.193% for the first, 8.66% for the second.

Going from Cc1cc(C)nc(NC(=O)c2cccs2)c1 to CN(C)c1nc(N(C)C)n(C(=O)c2cccs2)n1, the “hERG current change (%, negative = inhibition) at 1uM” value falls from 17.6% to 7.77%.

Compared with CCNC(=O)NC(=O)C(C)Sc1nc2ccccc2n1CC(C)C (stereo not shown), CCOC(=O)Cc1c(C)nc2c(-c3ccccc3)cnn2c1C is higher in “hERG current change (%, negative = inhibition) at 1uM” value: 1.93% for the first, 4.63% for the second.

Going from Cc1cccc(NS(=O)(=O)c2cc3c(cc2C)NC(=O)CO3)c1 to Cc1cccc(NC(=S)N(CCN(C)C)Cc2cc3cc(C)cc(C)c3[nH]c2=O)c1, the “hERG current change (%, negative = inhibition) at 1uM” value rises from -3.61% to 2.63%.

Going from Cc1ccc(-c2nn(Cc3ccccc3)cc2/C=C/C(=O)O)cc1C to CC1(C)c2ssc(=S)c2-c2ccccc2N1C(=O)c1ccco1, the “hERG current change (%, negative = inhibition) at 1uM” value falls from 24% to 14.6%.

Compared with COc1cc(C(=O)NC(=S)N2CCCCCC2)cc(OC)c1OC, O=C(c1cccc(Br)c1)N1CCN(S(=O)(=O)N2CCCCCC2)CC1 is lower in “hERG current change (%, negative = inhibition) at 1uM” value: 15.7% for the first, 4.48% for the second.

Compared with O=C(OCC(=O)c1ccc(Cl)s1)c1ccc(CO)cc1, CC(=O)c1ccc(OC(=O)c2cccs2)cc1 is lower in “hERG current change (%, negative = inhibition) at 1uM” value: 9.9% for the first, 7.58% for the second.

First: CCN(CC)Cc1c(O)ccc2c(=O)c(-c3ccc4c(c3)OCCO4)coc12
Second: O=C(CSc1nnc(-c2ccc(F)cc2)o1)c1ccc2c(c1)OCCO2
The “hERG current change (%, negative = inhibition) at 1uM” value of the first is higher: 11.9% for the first, 9.46% for the second.

Going from CCCNC(=O)COC(=O)CCC(=O)c1cccs1 to CC(C)(C)NC(=O)NC(=O)COC(=O)C1=COCCO1, the “hERG current change (%, negative = inhibition) at 1uM” value falls from 11% to -1.67%.

Compared with COc1cccc(N2CC(C(=O)Nc3nnc(SCC(=O)NC4CCCC4)s3)CC2=O)c1 (stereo not shown), Cc1ccc(S(=O)(=O)N2CCCCC2)cc1NC(=O)CNC(C)c1ccc(Cl)c(Cl)c1 (stereo not shown) is lower in “hERG current change (%, negative = inhibition) at 1uM” value: 15.2% for the first, 14.4% for the second.

First: COc1cccc(/C=C2\Sc3ccc(C(=O)NCc4cccnc4)cc3N(C)C2=O)c1
Second: COc1ccc(-c2coc3cc4oc(=O)c5ccccc5c4cc23)cc1F
The “hERG current change (%, negative = inhibition) at 1uM” value of the first is lower: 1.32% for the first, 6.05% for the second.

First: O=C(CN1CCN(S(=O)(=O)c2ccc(Br)cc2)CC1)Nc1ccc(F)cc1
Second: CC(=O)c1ccc(N2CCN(S(=O)(=O)c3ccc4c(c3)CC(C)N4C(C)=O)CC2)cc1 (stereo not shown)
The “hERG current change (%, negative = inhibition) at 1uM” value of the first is lower: -21.3% for the first, 12% for the second.

Compared with Cc1ccc(S(=O)(=O)NCC2CCCO2)cc1[N+](=O)[O-] (stereo not shown), O=S(=O)(c1ccc(N2CCN(S(=O)(=O)c3ccc4c(c3)OCCO4)CC2)nc1)N1CCCC1 is lower in “hERG current change (%, negative = inhibition) at 1uM” value: 8.5% for the first, -4.44% for the second.

Going from O=C(Cn1cncn1)c1ccc(F)cc1F to Fc1ccc(-c2nnc(-c3ccc(F)cc3)o2)cc1, the “hERG current change (%, negative = inhibition) at 1uM” value falls from 20.7% to 12.5%.

Going from Cc1oncc1-c1csc(-c2ccccc2)n1 to CC(C)=CCC/C(C)=C/CN(CC(C)O)CC(C)O (stereo not shown), the “hERG current change (%, negative = inhibition) at 1uM” value falls from 15.5% to 10.3%.
